Laboratory results: the supplement of paper PMC10369915
This is one part of the list. Rule as the data show it: active = 3.2 or more and inactive = the rest. The signal is at background level for most entries.

Experiments:
Assay in all cases: enrichment score (SH2-bound / input frequency) (ratio); bacterial display of known human phosphotyrosine sites (pTyr-Var adds point mutants) read by sequencing; higher = stronger binding; tyrosines were phosphorylated by kinases first
Conditions in all cases: peptide library: pTyr-Var
SHP2 C-SH2 domain E139D = biological target: SHP2 C-SH2 domain E139D
[1] = biological target: SHP2 C-SH2 domain wild-type
SHP2 N-SH2 domain L43F = biological target: SHP2 N-SH2 domain L43F
SHP2 N-SH2 domain T42A = biological target: SHP2 N-SH2 domain T42A
SHP2 N-SH2 domain T52S = biological target: SHP2 N-SH2 domain T52S
[2] = biological target: SHP2 N-SH2 domain wild-type

Measured: enrichment score
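Also: displayed peptides selected on beads carrying the immobilized SH2 domain, with library peptides lacking any tyrosine serving as negative controls.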

B1: F8_Y1990_YF (peptide)
chain: RKKEEYKMALF
inactive: SHP2 C-SH2 domain E139D 0.714 | [1] 0.626 | SHP2 N-SH2 domain L43F 0.812 | SHP2 N-SH2 domain T42A 0.624 | SHP2 N-SH2 domain T52S 0.743 | [2] 0.735

B2: F8_Y450_T454I (peptide)
chain: VRFMAYTDEIF
inactive: SHP2 C-SH2 domain E139D 1.14 | [1] 0.884 | SHP2 N-SH2 domain L43F 0.881 | SHP2 N-SH2 domain T42A 0.921 | SHP2 N-SH2 domain T52S 0.915 | [2] 0.869

B3: F5_Y2153_YF (peptide)
chain: MFVKSYTIHFS
inactive: SHP2 C-SH2 domain E139D 0.905 | [1] 0.835 | SHP2 N-SH2 domain L43F 0.801 | SHP2 N-SH2 domain T42A 0.763 | SHP2 N-SH2 domain T52S 0.736 | [2] 0.715

B4: F8_Y1728_D1727V (peptide)
chain: ERLWVYGMSSS
inactive: SHP2 C-SH2 domain E139D 0.616 | [1] 0.756 | SHP2 N-SH2 domain L43F 0.801 | SHP2 N-SH2 domain T42A 0.586 | SHP2 N-SH2 domain T52S 0.83 | [2] 0.873

B5: F5_Y2149_Y2149C (peptide)
chain: LSSEMCVKSYT
inactive: SHP2 C-SH2 domain E139D 0.576 | [1] 0.531 | SHP2 N-SH2 domain L43F 0.489 | SHP2 N-SH2 domain T42A 0.496 | SHP2 N-SH2 domain T52S 0.367 | [2] 0.495

B6: FAH_Y244_P249T (peptide)
chain: IQKWEYVPLGT
inactive: SHP2 C-SH2 domain E139D 1.12 | [1] 1.23 | SHP2 N-SH2 domain L43F 0.815 | SHP2 N-SH2 domain T42A 1.11 | SHP2 N-SH2 domain T52S 1.02 | [2] 1.09

B7: F8_Y442_G439S (peptide)
chain: RISRKYKKVRF
inactive: SHP2 C-SH2 domain E139D 0.324 | [1] 0.328 | SHP2 N-SH2 domain L43F 0.265 | SHP2 N-SH2 domain T42A 0.346 | SHP2 N-SH2 domain T52S 0.18 | [2] 0.268

B8: F8_Y450_Y450N (peptide)
chain: VRFMANTDETF
inactive: SHP2 C-SH2 domain E139D 1.06 | [1] 0.953 | SHP2 N-SH2 domain L43F 1.06 | SHP2 N-SH2 domain T42A 0.907 | SHP2 N-SH2 domain T52S 0.942 | [2] 1.06

B9: FAH_Y244 (peptide)
chain: IQKWEYVPLGP
inactive: SHP2 C-SH2 domain E139D 1.1 | [1] 1.09 | SHP2 N-SH2 domain L43F 1.05 | SHP2 N-SH2 domain T42A 1.06 | SHP2 N-SH2 domain T52S 1.12 | [2] 1.42

B10: FAM120A_Y327 (peptide)
chain: KRAIGYYSATS
inactive: SHP2 C-SH2 domain E139D 0.684 | [1] 0.625 | SHP2 N-SH2 domain L43F 0.581 | SHP2 N-SH2 domain T42A 0.542 | SHP2 N-SH2 domain T52S 0.676 | [2] 0.683

B11: F8_Y442_R437Q (peptide)
chain: QIGRKYKKVRF
inactive: SHP2 C-SH2 domain E139D 0.221 | [1] 0.535 | SHP2 N-SH2 domain L43F 0.342 | SHP2 N-SH2 domain T42A 0.572 | SHP2 N-SH2 domain T52S 0.232 | [2] 0.374

B12: F5_Y2153 (peptide)
chain: MYVKSYTIHYS
inactive: SHP2 C-SH2 domain E139D 0.965 | [1] 1.01 | SHP2 N-SH2 domain L43F 0.91 | SHP2 N-SH2 domain T42A 0.828 | SHP2 N-SH2 domain T52S 0.855 | [2] 1.07

B13: FAM111A_Y511_YF (peptide)
chain: AESPEYVHMFT
inactive: SHP2 C-SH2 domain E139D 0.981 | [1] 1 | SHP2 N-SH2 domain L43F 0.786 | SHP2 N-SH2 domain T42A 0.781 | SHP2 N-SH2 domain T52S 0.766 | [2] 1.07

B14: F8_Y442_Y442C (peptide)
chain: RIGRKCKKVRF
inactive: SHP2 C-SH2 domain E139D 0.205 | [1] 0.295 | SHP2 N-SH2 domain L43F 0.231 | SHP2 N-SH2 domain T42A 0.237 | SHP2 N-SH2 domain T52S 0.564 | [2] 0.322

B15: F5_Y2149_Y2149C_YF (peptide)
chain: LSSEMCVKSFT
inactive: SHP2 C-SH2 domain E139D 0.605 | [1] 0.802 | SHP2 N-SH2 domain L43F 0.955 | SHP2 N-SH2 domain T42A 0.718 | SHP2 N-SH2 domain T52S 0.675 | [2] 0.938

B16: F8_Y1990_R1985Q (peptide)
chain: QKKEEYKMALY
inactive: SHP2 C-SH2 domain E139D 0.995 | [1] 0.755 | SHP2 N-SH2 domain L43F 0.719 | SHP2 N-SH2 domain T42A 0.684 | SHP2 N-SH2 domain T52S 0.736 | [2] 0.874

B17: F8_Y450 (peptide)
chain: VRFMAYTDETF
inactive: SHP2 C-SH2 domain E139D 1.06 | [1] 0.967 | SHP2 N-SH2 domain L43F 1.13 | SHP2 N-SH2 domain T42A 0.97 | SHP2 N-SH2 domain T52S 1.1 | [2] 1.21

B18: F5_Y2153_M2148T_YF (peptide)
chain: TFVKSYTIHFS
inactive: SHP2 C-SH2 domain E139D 1.19 | [1] 1.4 | SHP2 N-SH2 domain L43F 0.887 | SHP2 N-SH2 domain T42A 1.13 | SHP2 N-SH2 domain T52S 0.918 | [2] 1.42

B19: F8_Y442_I438F (peptide)
chain: RFGRKYKKVRF
inactive: SHP2 C-SH2 domain E139D 0.203 | [1] 0.284 | SHP2 N-SH2 domain L43F 0.323 | SHP2 N-SH2 domain T42A 0.346 | SHP2 N-SH2 domain T52S 0.266 | [2] 0.239
